PMC4336329 (PLoS ONE, 2015)
Screen size: about 310,000 compounds; about 14,000 (4.5%) showed an effect of 50% or more. The effect is printed as a negative number. The list shows a part of the results.

target: human ether-à-go-go-related gene (hERG) potassium channel (human, UniProt Q12809); experiment: primary screen, population patch clamp on CHO cells stably expressing hERG
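Further: peak tail current of the secondary pulse compared with the same well before compound.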

human ether-à-go-go-related gene (hERG) potassium channel, sequence (Q12809 whole entry, looked up): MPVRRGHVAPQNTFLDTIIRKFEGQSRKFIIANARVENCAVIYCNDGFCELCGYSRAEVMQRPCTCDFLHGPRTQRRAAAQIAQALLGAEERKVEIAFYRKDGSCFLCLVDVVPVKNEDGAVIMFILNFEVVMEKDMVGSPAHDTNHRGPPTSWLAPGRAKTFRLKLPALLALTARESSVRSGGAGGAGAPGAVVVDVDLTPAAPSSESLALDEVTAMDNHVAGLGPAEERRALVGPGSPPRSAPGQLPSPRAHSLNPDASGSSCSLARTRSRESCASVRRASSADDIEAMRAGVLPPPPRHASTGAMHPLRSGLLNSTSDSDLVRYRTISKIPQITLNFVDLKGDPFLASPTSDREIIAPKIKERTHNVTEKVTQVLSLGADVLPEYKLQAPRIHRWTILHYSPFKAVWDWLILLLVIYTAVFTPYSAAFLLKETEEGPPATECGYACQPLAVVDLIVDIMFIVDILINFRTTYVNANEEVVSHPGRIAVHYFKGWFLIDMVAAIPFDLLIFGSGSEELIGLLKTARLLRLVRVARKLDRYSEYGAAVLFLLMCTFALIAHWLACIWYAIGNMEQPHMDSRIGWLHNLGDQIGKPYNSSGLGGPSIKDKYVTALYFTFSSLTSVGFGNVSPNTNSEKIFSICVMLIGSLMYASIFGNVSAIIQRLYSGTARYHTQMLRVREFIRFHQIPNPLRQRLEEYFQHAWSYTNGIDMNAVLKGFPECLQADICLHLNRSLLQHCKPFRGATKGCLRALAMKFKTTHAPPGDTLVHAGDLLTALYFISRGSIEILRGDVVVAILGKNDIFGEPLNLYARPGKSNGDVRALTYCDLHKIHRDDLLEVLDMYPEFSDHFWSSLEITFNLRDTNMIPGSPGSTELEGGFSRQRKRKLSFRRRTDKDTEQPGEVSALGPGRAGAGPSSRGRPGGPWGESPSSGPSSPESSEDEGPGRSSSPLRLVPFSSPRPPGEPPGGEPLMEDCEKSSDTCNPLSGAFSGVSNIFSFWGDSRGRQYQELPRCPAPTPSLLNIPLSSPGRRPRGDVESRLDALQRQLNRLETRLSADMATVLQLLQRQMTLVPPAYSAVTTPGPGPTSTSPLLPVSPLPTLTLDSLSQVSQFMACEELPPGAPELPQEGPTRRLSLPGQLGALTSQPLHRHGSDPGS

SMILES | hERG current change (%, negative = inhibition) at 10uM
c1ccc2c(-c3cn4ccccc4n3)c[nH]c2c1 | -5.76%
CCc1c(C)sc(NC(=O)Cn2nc(C)c([N+](=O)[O-])c2C)c1C(N)=O | 15.5%
CC1CCCCN1C(=O)CN1C(=O)c2ccccc2S1(=O)=O (stereo not drawn) | 3.43%
Cc1ccc(Cn2c(=O)sc3ccccc3c2=O)cc1 | 13.5%
NNC(=O)c1c(O)c2cccc3c2n(c1=O)CCC3 | 22.4%
O=C(Nc1cccc(O)c1)c1cccc(C(=O)Nc2cccc(O)c2)c1 | 18.7%
COc1ccc(-c2cc(C(F)(F)F)nc(SCC(=O)NCc3cnn(C)c3C)n2)cc1OC | -2.05%
O=C(CCn1c(=O)oc2ccccc21)Nc1cccc([N+](=O)[O-])c1 | 6.68%
Cc1ccn2cc(-c3cnoc3C)nc2c1 | 6.49%
Cc1cc(O)c(NC(=O)c2ccc(C)c([N+](=O)[O-])c2)cc1C | 9.3%
Cc1ccc(N(CC(=O)Nc2ccc(F)cc2)S(=O)(=O)N2CCCC2)cc1 | -27.1%
Fc1cc(Br)cc(F)c1NC(=S)N1CCOCC1 | 6.42%
COC(=O)c1cc(Br)ccc1N(Cc1cc(OC)cc(OC)c1)S(C)(=O)=O | -9.66%
O=C(NNc1nc2c(F)cccc2s1)C1=COCCO1 | 20%
Nc1ccccc1C(=O)N(Cc1ccccc1)Cc1ccccc1 | 3.55%
CN(NC(=O)c1ccccc1)c1nc2ccccc2nc1C(F)(F)F | -3.6%
Cc1ccc2[nH]c(C(=O)Nc3ccc(F)cc3)cc2c1 | 13%
O=S(=O)(NN1CCOCC1)c1cc(Cl)cc(Cl)c1O | 14.1%
Cc1cc(C(=O)CCC(=O)N2CCN(c3ccccc3O)CC2)c(C)s1 | -1.8%
O=C(Nc1nnc(Cc2ccccc2)s1)C1CCC1 | 10.9%
Cc1nn(C)cc1CN(C)C(=O)c1cc(-c2ccccc2)nc2ccc(Br)cc12 | -4%
COc1ccc([C@H]2CC(=O)C=C(c3cc4ccccc4s3)C2)cc1 | -1.66%
COc1ccc(/C=N/NC(=O)Nc2ccc3nsnc3c2)c(OC)c1 | 5.51%
Nc1ccc2nc(SCc3cccc(F)c3)sc2c1 | 10.5%

SMILES | hERG current change (%, negative = inhibition) at 10uM
CCc1ccccc1NC(=O)C1=CC(c2ccc(OC)c(OC)c2)=NS(=O)(=O)N1C | 15.2%
CN(Cc1cnccn1)C(=O)C1CCC(=O)N(CCc2ccc(Cl)cc2)C1 (stereo not drawn) | -67.9%
COc1ccc(C(CNC(=O)c2cccc(S(=O)(=O)N3CCCCC3)c2)N2CCCC2)cc1 (stereo not drawn) | -43.8%
CN(CC(=O)NCc1ccco1)S(=O)(=O)c1ccc2c(c1)c(=O)n(C)c(=O)n2C | -11.7%
COC(=O)c1ccc2nc(C)cc(Nc3ccccc3C)c2c1.Cl | -47.5%
CCc1noc(C)c1C(=O)N(C)CC(=O)Nc1ccc(F)c(F)c1F | 17.4%
COc1ccc(OC)c(NC(=O)COC(=O)C2CCN(C(=O)c3ccc(Cl)cc3)CC2)c1 | -71.1%
COc1ccccc1CCC(=O)NNC(=O)c1ccc(Br)cc1 | 11.2%
Cc1cccc(NC(=O)c2sc(NC(=O)COc3ccccc3)c(C#N)c2C)c1C | 14.6%
FC(F)(F)c1ccc(/C=N/NC(=S)NC2CCCCC2)cc1 | -13.6%
CCn1cc(C(=O)O)c(=O)c2cnc(N3CCN(C(=S)NC(=O)c4ccc(Cl)cc4)CC3)nc21 | -1.52%
[C-]#[N+][C@H](O[C@@H]1O[C@H](CO)[C@@H](O)[C@H](O)[C@H]1O)c1ccccc1 | -7.77%
CC(=O)OCC(=O)NCC(=O)c1c[nH]c2ccccc12 | 16.9%
O=C([O-])c1ccc(-n2nc(C(F)(F)F)c3c2CCCC3)cc1.[K+] | 12.3%
O=C(Nc1ccccc1C(=O)OCC(=O)c1c[nH]c2ccccc12)c1ccco1 | -5.98%
Cn1ccnc1SCC(=O)Nc1ccc(Br)cc1C(F)(F)F | 8.6%
CCOC(=O)C(C#N)C(Cc1ccccc1)c1ccco1 (stereo not drawn) | -10%
C=CCNC(=S)NNC(=O)c1csc(C)c1C | 15.7%
O=S(=O)(Cc1ccccc1)/C1=C(\N2CCOCC2)CCCCCC1 | -11%
C[C@H](CO)NC(=O)[C@H](C)[C@@H]1C[C@@]1(C)[C@@H](NC(=O)OCc1ccccc1)c1ccccc1 | -19.1%
CCCN1CCCc2cc(CN)ccc21.O=C(O)C(=O)O | -12.9%
Cn1c2ccccc2c2c(C(=O)NCCCN3CCCC3=O)cn(C3CCCCC3)c(=O)c21 | 1.44%
COc1ccc(NS(=O)(=O)c2cc(NC(=O)c3cccc(OCc4c(C)noc4C)c3)ccc2OC)cc1 | 12.9%
CCN1C(=O)[C@H]2[C@@H](c3ccc(C)cc3)N3C(=O)N(c4cccc(Br)c4)C(=O)[C@@]3(Cc3ccccc3)[C@H]2C1=O | 10.9%

SMILES | hERG current change (%, negative = inhibition) at 10uM
O=C(O)c1ccc(Cn2cc(C(F)(F)F)ccc2=O)cc1 | 21.8%
CCC(C)N1CCN(C(=O)C2CCN(S(=O)(=O)c3c(C)noc3/C=C/c3ccco3)CC2)CC1 (stereo not drawn) | -12.9%
CN(C(=O)CSc1nnc2ccccn12)C1CCS(=O)(=O)C1 (stereo not drawn) | 10.4%
CCOc1ccc(-c2ncncc2-c2ccc(OC)c(OC)c2)c(O)c1 | -20.7%
COCCCNc1nc2c(c(=O)n(C)c(=O)n2C)n1Cc1cccc(OC)c1 | 8.96%
Cc1ccccc1N1C(=O)NC(=O)/C(=C\c2cnn(-c3ccccc3)c2)C1=O | 10.3%
COc1ccc(CCN2CC(C(=O)N(C)CC(=O)Nc3cccc(F)c3)CC2=O)cc1OC (stereo not drawn) | 12.7%
CCNS(=O)(=O)c1ccc(OCCNS(C)(=O)=O)cc1 | 2%
CNCc1ccc(OCc2ccccc2)c(OC)c1 | 0.71%
C=C[C@@]12CN(C)[C@H]3[C@H]1[C@@]1(C(=O)Nc4ccccc41)C1CC2[C@@H]3CO1 | 13%
O=C(CCn1[nH]c(=O)c2ccccc2c1=O)NCCO | 9.55%
Cc1ccc(S(=O)(=O)N2CCN(CC(=O)N/N=C/C=C/c3ccccc3)CC2)cc1 | -73.8%
C/C(CC(=O)Nc1cccnc1)=N\NC(=O)C(=O)NC(C)C | 17.6%
S=c1[nH]nc(-c2ccco2)n1/N=C/c1ccccc1Cl | 14.4%
NS(=O)(=O)c1ccc(NC(=O)CCC2CCCCC2)cc1 | 5.03%
COC(=O)C1CN(C(=O)C(C)Oc2ccc(F)cc2)c2ccccc2O1 (stereo not drawn) | 3.64%
Cc1nc(CCNC(=O)CC2C(=O)NCCN2Cc2ccc(F)cc2)sc1C (stereo not drawn) | 12.3%
Cc1cc(C)cc(OCC(=O)NNC(=O)CN2C(=O)c3ccccc3C2=O)c1 | 9.45%
O=C(C1CC(=O)N(c2ccc(F)c(Cl)c2)C1)N1CCC2(CC1)OCCO2 (stereo not drawn) | 0.311%
O=C1C2C3C=CC(C3)C2C(=O)N1CCc1ccccc1 (stereo not drawn) | 6.21%
Cc1ccc(C(=O)C2=C(O)C(=O)N(Cc3cccnc3)C2c2cccc(Oc3ccccc3)c2)o1 (stereo not drawn) | 13%
COc1ccc(-n2nc3c(N4CCC(C(=O)NCc5ccco5)CC4)nnc(C)c3c2C)cc1 | 5.12%
COCCn1nnnc1C(c1ccccc1)N1CCN(C)CC1.Cl (stereo not drawn) | 8.75%
Cc1cc(=O)[nH]c2c1c(-c1ccccc1)nn2C | 2.46%

SMILES | hERG current change (%, negative = inhibition) at 10uM
Cc1cc(NC(=O)C2CC(c3ccc(Cl)cc3)=NO2)no1 (stereo not drawn) | -4.52%
CSc1ccc(S(=O)(=O)N2CCN(Cc3ccc4c(c3)OCO4)CC2)cc1 | -9.34%
CC(C)(C)CC(=O)Nc1nnc(SCC(=O)Nc2ccccc2F)s1 | 15.7%
Cc1cccc(NC(=O)CC(=O)Nc2cccc(C)c2)c1 | 10.7%
CCOC(=O)c1oc2c(CN3CCCCC3C)c(O)ccc2c(=O)c1-c1ccc(OC)c(OC)c1 (stereo not drawn) | -21.6%
O=c1[nH]c2cc3c(cc2cc1C(c1nnnn1C1CCCC1)N1CCSCC1)OCCO3 (stereo not drawn) | 13.6%
CC(C)=CCc1c(O)cc2oc3c(CC=C(C)C)c(O)c(O)c(CC=C(C)C)c3c(=O)c2c1O | 8.6%
Cc1cccc(NC(=O)CSc2nc3ccccc3nc2N2CC(C)OC(C)C2)c1 (stereo not drawn) | -10.2%
Cc1cc(NC(=O)CSc2nnc(Nc3ccccc3)s2)no1 | 3.33%
CC1CCCC(C(=O)OCc2ccccc2)N1.Cl (stereo not drawn) | 4.56%
COc1cc(CN2CCNC(=O)C2CC(=O)N(C)CCCN2CCOCC2)cc(OC)c1 (stereo not drawn) | 9.39%
CC(c1nnc(SCC(=O)Nc2cccnc2Cl)n1Cc1ccccc1)N(C)C (stereo not drawn) | 11%
Nc1nc(SCC(=O)Nc2ccc([N+](=O)[O-])cc2Br)n[nH]1 | 3.65%
Cc1ccc(-n2c(C)c(C)c3c(NCCN(C)C)ncnc32)cc1 | -36.3%
COc1cc(C2Nc3ccccc3C(=O)N2c2ccccc2)c(Br)cc1OCC(=O)O (stereo not drawn) | 0.108%
CN(CC(=O)Nc1ccccc1-c1ccccc1)C1CCCCC1.[O-][Cl+3]([O-])([O-])O | -9.45%
CSCCC(NS(=O)(=O)/C=C/c1ccccc1)C(=O)O (stereo not drawn) | 9.96%
CCOC(=O)Cc1csc(NC(=O)c2c(O)c3ccccc3n(CCC(C)C)c2=O)n1 | 19%
COc1ccc(S(=O)(=O)NC(CC(=O)NCC2CCCO2)c2ccco2)cc1 (stereo not drawn) | 8.5%
COc1ccc(C(CCN(Cc2ccc(OC)c(OC)c2)C(C)=O)C(C)C)cc1 (stereo not drawn) | -52.3%
CCc1nnc(NC(=O)C2CCCN(C(=O)c3ccc(Cl)cc3)C2)s1 (stereo not drawn) | 6.87%
O=C(NCN1C(=O)C2C3C=CC(C3)C2C1=O)Nc1ccccc1O (stereo not drawn) | 13.9%
COc1ccc(-n2c(CNCCc3ccc(C)cc3)nc3ccccc3c2=O)cc1 | -32.8%
CCOC(=O)c1c(C)[nH]c(C(=O)OCC(=O)N2CCN(S(=O)(=O)c3ccc(C)cc3C)CC2)c1C | -1.48%
